Test results reported in PubChem BioAssay AID624173 (National Center for Advancing Translational Sciences (NCATS), 2012).
Among all 410,000 compounds or so, about 490 (0.12%) were called active. Inconclusive means that the source gave no clear call. Such entries were picked first, then a sample of the others. The call rests on the fitted dose curve; in most records, active means well fitted inhibition curve with a large enough effect; inconclusive means small, poorly fitted or top-dose-only effect; inactive means flat fitted curve, though single readings scatter. A potency beside an inconclusive call is a rough fit, not a confirmed value.

target: pyruvate kinase (Trypanosoma brucei) (UniProt Q57TT1); test: qHTS of Trypanosoma Brucei Inhibitors; settings: TbPYK enzyme, Kinase-Glo Plus ATP luminescence, 45 min; series mostly up to 76.8 µM; activity, negative = inhibition: at the top concentration; further: nearly all actives have a fitted effect of over 50% in size
Method in brief: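 Glycolytic pyruvate kinase of T. brucei was incubated with substrate, test compound and 130 uM ADP for 45 minutes at room temperature. Luminescent Kinase-Glo Plus signal was measured after 10 minutes.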
On the % scale 0 is the no-effect control and ±100 the full control effect; potency means the concentration at half of the fitted maximal effect; tags describe the fitted curve by direction and shape.

SMILES | Potency | activity, negative = inhibition
OC(COc1ccc2cc(Br)ccc2c1)Cn1ccnc1 (configuration not stated) | inconclusive: 1 µM [inhibitor, full curve, poor fit] | 
O=C(O)C1C2C=CC(C2)C1C(=O)NCc1ccoc1 (configuration not stated) | inconclusive: 3.98 µM [inhibitor, full curve] | 
Oc1ccc2c(c1)OCC1(O)Cc3cc(O)c(O)cc3C21 (configuration not stated) | active: 11.2 µM | 
COc1ccc([C@@H]2[C@@H]3C(=O)N(C(C)(C)C)C(=O)[C@@H]3[C@]3(CC(C)C)C(=O)N(c4ccccc4)C(=O)N23)cc1 |  | inactive: 0.276%
CCOC(=O)c1c(N)n(-c2ccc(Cl)c(Cl)c2)c2nc3ccccc3nc12 |  | inactive: -2.27%
Cc1ccnc(SCC(=O)N2CCN(C(c3ccccc3)c3ccccc3)CC2)n1 | inconclusive: 50.1 µM [inhibitor, single point] | 
C/C(=N/NC(=O)Cc1cccs1)c1ccco1 | inconclusive: 28.2 µM [inhibitor, partial curve, poor fit] | 
CCOC(=O)c1ccc(NC(=O)c2c(NCc3cccs3)sc3c2CCCCC3)cc1 | inconclusive: 22.4 µM [inhibitor, partial curve] | 
Nc1sc2c(c1C(=O)c1ccccc1)CCCC2 | inconclusive: 28.2 µM [inhibitor, partial curve, poor fit] | 
COc1ccc(CC(=O)NC(=S)NNC(=O)COc2c(C)cccc2C)cc1 | inconclusive: 5.01 µM [inhibitor, partial curve, poor fit] | 
COc1ccc(C(=O)Nc2cc(-c3cccc(C)c3)nn2-c2ccccc2)cc1 |  | inactive: 3.02%
CCCCCC(=O)Nc1sc(C)c(C)c1C#N | inconclusive: 1 µM [inhibitor, full curve, poor fit] | 
Cc1cccc(OCc2n[nH]c(=S)n2-c2ccccc2)c1 | inconclusive: 4.47 µM [inhibitor, partial curve] | 
Cc1c(Cl)c(-c2n[nH]c(=S)n2CC(C)C)nn1C | inconclusive: 22.4 µM [inhibitor, partial curve, poor fit] | 
S=c1[nH]nc(COc2ccccc2)n1/N=C/c1ccc(Cl)c(Cl)c1 | inconclusive: 17.8 µM [inhibitor, partial curve, poor fit] | 
Cc1ccc(/C=C/C(=O)N2CCN(S(=O)(=O)c3c(C)c(C)cc(C)c3C)CC2)o1 | inconclusive: 28.2 µM [inhibitor, partial curve, poor fit] | 
Cc1nn(Cc2ccc(C(=O)Nc3ccccc3F)cc2)c(C)c1Cl | inconclusive: 15.8 µM [inhibitor, partial curve] | 
Cc1ccc(CN(C)C(=O)c2cccc(S(=O)(=O)N3CCc4ccccc4C3)c2)o1 | inconclusive: 28.2 µM [inhibitor, single point] | 
CN(C)c1cccc2c(C=C(C#N)C#N)ccc(N(C)C)c12 | inconclusive: 22.4 µM [inhibitor, partial curve] | 
O=C(CSC1CC(=O)N(CCc2ccccc2)C1=O)Nc1ccc(Br)cc1 (configuration not stated) |  | inactive: -6.31%
CCOc1c(O)ccc(/C=C2\SC(=S)NC2=O)c1[N+](=O)[O-] | inconclusive: 35.5 µM [inhibitor, single point] | 
Fc1ccc(-n2c(=S)[nH]c3cccnc32)cc1 | inconclusive: 11.2 µM [inhibitor, partial curve, poor fit] | 
CN(C)c1ccc(/C=C/C=C2/C(=O)NC(=O)N(c3ccccc3)C2=O)cc1 | inconclusive: 22.4 µM [inhibitor, partial curve] | 
COc1ccccc1CNC(=O)CSc1ccccc1 |  | inactive: -5.86%

SMILES | Potency | activity, negative = inhibition
Cc1cc(NC(=O)COC(=O)C2CCCN2C(=O)c2cccs2)no1 (configuration not stated) |  | inactive: 1.26%
COCCCN=C1NN=C(c2cc(C)n(Cc3ccco3)c2C)CS1 | inconclusive: 20 µM [inhibitor, partial curve, poor fit] | 
COc1ccc(OCC(=O)OCCNC(=O)c2cccnc2)cc1 | inconclusive: 39.8 µM [inhibitor, partial curve, poor fit] | 
CC(=O)OC1C2CCC1C([N+]1(C)CCCCC1)CC2 (configuration not stated) | inconclusive: 50.1 µM [inhibitor, single point] | 
O=C(CSc1nccn1Cc1ccco1)Nc1cc(C(F)(F)F)ccc1Cl |  | inactive: -6.9%
CCOC(=O)C1CCCN(C(=O)Cn2sc3nc(C)cc(C)c3c2=O)C1 (configuration not stated) | inconclusive: 5.62 µM [inhibitor, full curve, poor fit] | 
Cc1cc(C)nc(-n2nc(C)c(Sc3ccc(F)cc3)c2N)n1 | inconclusive: 35.5 µM [inhibitor, partial curve, poor fit] | 
COc1ccc(/C=C2/NC(=O)CNC2=O)cc1 |  | inactive: -3.8%
CCN(CC)C(=O)c1ccc2c(c1)C1C=CCC1C(C(=O)O)N2 (configuration not stated) | inconclusive: 8.91 µM [inhibitor, partial curve] | 
O=C(COc1ccc(Cl)cc1Cl)Nc1ccccn1 | inconclusive: 35.5 µM [inhibitor, partial curve, poor fit] | 
CN=c1sc(C(=O)Nc2cccc(Cl)c2)cc(=O)n1C | active: 20 µM | 
COC(=O)c1ccc2nc(-c3ccco3)c(Cc3ccc(OC)cc3C)n2c1 | active: 14.1 µM | 
Cc1occc1C(=O)Nc1ccc(Br)cc1F |  | inactive: -7.98%
Cn1c(Cl)nc2ccccc21 |  | inactive: 1.03%
CC(=C/C(=O)O)/C=C/c1ccco1 | inconclusive: 28.2 µM [inhibitor, single point] | 
CCOc1ccc(CNCc2c(C(=O)O)n(Cc3ccccc3C)c3cc(OC)ccc23)cc1OC |  | inactive: -2.55%
Cc1ccc(S(=O)(=O)C(CNS(=O)(=O)c2ccc(F)c(C(F)(F)F)c2)c2ccco2)cc1 (configuration not stated) |  | inactive: 5.29%
CCN(CC)c1ccc(/C=C/C(=O)c2cccnc2)cc1 |  | inactive: -3.23%
Cc1ccc(Nc2nc3ccccc3o2)cc1F | inconclusive: 28.2 µM [inhibitor, single point] | 
COc1ccc(NC(C)=[N+](C)CCNS(=O)(=O)c2ccc(Cl)cc2)cc1 | inconclusive: 31.6 µM [inhibitor, single point] | 
Cc1ccccc1CN1CCNC(=O)C1CC(=O)NC1CCCCCCC1 (configuration not stated) |  | inactive: 3.96%
CC(=O)/C(C[N+]1(C)CCCCC1)=N\O | inconclusive: 39.8 µM [inhibitor, single point] | 
CN(C)c1ccc(/C=C/C=C2/SC(=S)N(c3ccccc3)C2=O)cc1 | inconclusive: 17.8 µM [inhibitor, partial curve, poor fit] | 
CC(=O)c1csc(COc2ccc(Cl)cc2)n1 |  | inactive: 0.725%

SMILES | Potency | activity, negative = inhibition
Cc1cccc(-n2c(-c3csc(C(C)C)c3)n[nH]c2=S)c1 | inconclusive: 15.8 µM [inhibitor, partial curve, poor fit] | 
COc1ccc(CC(=O)NC2CC(=O)N(c3ccc(C)c(C)c3)C2)cc1OC (configuration not stated) |  | inactive: -9.04%
COc1cc(/C=C2/C(=O)CNC2=O)ccc1O | inconclusive: 6.31 µM [inhibitor, partial curve, poor fit] | 
CCOC(=O)c1ccc(NC(=O)CSc2cc(=O)n(CC)c3ccccc23)cc1 | inconclusive: 5.01 µM [inhibitor, partial curve, poor fit] | 
O=C(CSc1nc2[nH]ncc2c(=O)[nH]1)Nc1cc(C(F)(F)F)ccc1Cl |  | inactive: -13.4%
O=C(/C=C/Nc1ccccc1Br)c1ccccn1 | inconclusive: 28.2 µM [inhibitor, partial curve, poor fit] | 
O=C1C=CC(=Nc2ccc(F)cc2)O1 | inconclusive: 50.1 µM [inhibitor, single point] | 
COc1ccc(Cn2c(=S)[nH]c3ccccc32)cc1 | inconclusive: 3.55 µM [inhibitor, full curve] | 
N#C/C(=C\C1=C(N2CCOCC2)C(=C\c2ccccc2)/CC1)C(=O)Nc1ccccc1F | inconclusive: 35.5 µM [inhibitor, partial curve, poor fit] | 
c1ccc(CSc2nc3ncccc3[nH]2)cc1 |  | inactive: -3.44%
Cc1cc(C)cc(OC(C)C(=O)Nc2c(C(=O)c3ccccc3)oc3ccccc23)c1 (configuration not stated) |  | inactive: 0.638%
Cc1ccnc(-n2sc3ccccc3c2=O)n1 | active: 20 µM | 
Nc1c(C(=O)N2CCCCC2)sc2nc3c(cc12)CCCC3 |  | inactive: -21.7%
CCN(CC)C(=O)c1sc2nc(Cc3ccccc3)[nH]c(=O)c2c1C | inconclusive: 50.1 µM [inhibitor, single point] | 
CCN1/C(=C/C=C/C=C/C=C/c2sc3ccccc3[n+]2CC)Sc2ccccc21 | inconclusive: 31.6 µM [inhibitor, partial curve, poor fit] | 
CCc1ccc(CNC(=O)C2Cc3cc(S(=O)(=O)N4CCCCCC4)ccc3N2C(C)=O)cc1 (configuration not stated) |  | inactive: 5.47%
O=c1cc(C(F)(F)F)[nH]c(=S)n1-c1ccccc1 | inconclusive: 14.1 µM [inhibitor, partial curve] | 
CC(C)Oc1ccc(C2CC(=O)N(c3ccccc3)C2=O)cc1 (configuration not stated) |  | inactive: -11.1%
CCn1c(C)cc(C(=O)COC(=O)c2ccccc2[N+](=O)[O-])c1C | inconclusive: 31.6 µM [inhibitor, partial curve] | 
Cc1ccc2c(c1)C(C)(C)[C@]1(C)NC(=O)CCN21 |  | inactive: -5.52%
CC(C)Cn1c(-c2ccc(Br)cc2)c[nH]c1=S | inconclusive: 1.58 µM [inhibitor, full curve, poor fit] | 
CC(=O)Nc1ccc(S(=O)(=O)NCCNS(=O)(=O)c2ccc(NC(C)=O)cc2)cc1 | inconclusive: 31.6 µM [inhibitor, single point] | 
CCn1c(COc2ccc(=O)n(-c3ccccc3)n2)n[nH]c1=S | inconclusive: 39.8 µM [inhibitor, partial curve, poor fit] | 
O=[N+]([O-])c1cc2oc3c(c2c(C=NCc2ccccc2)c1O)CCCC3 | inconclusive: 3.98 µM [inhibitor, partial curve, poor fit] | 
